# Test results as given in PubChem BioAssay AID504706 (National Center for Advancing Translational Sciences (NCATS), 2011).
# About 200 (0.062%) of roughly 320,000 compounds were called active. Inconclusive means that the source gave no clear call. Such entries were picked first, then a sample of the others. Calls come from the whole dose curve; as a rule, active = well fitted activation curve with a large enough effect; inconclusive = small, poorly fitted or top-dose-only effect; inactive = no such curve, though single readings can be large or run the other way. No potency is given beside an inconclusive call; the fits are too rough.
# Experiment: qHTS assay for re-activators of p53 using a Luc reporter; note: nearly all actives have a fitted effect of over 45% in size; for activity change, positive = activation: % of control where 0% means no effect
# Details: H1299 p53-A138V BP100-luciferase reporter, luminescence, 24 h; series mostly up to 92.2 µM; activity change, positive = activation: at the top concentration
# Summary of the method: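 H1299 (p53-null), stable ts p53-A138V + BP100-Luc; 1000 cells/well, Opti-MEM/10% FBS; cpd 4 pt, 1:5; 24 h, 37 deg C, 5% CO2; detection reagent 10 min RT; luminescence.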
# Potency is the fitted concentration of half-maximal effect; tags give direction and shape of the fitted curve.
Compound,Potency,"activity change, positive = activation"
Cc1cc(Cl)ccc1NC(=S)NCc1cccs1,"inconclusive [activator, single point]",–
Cc1ccc(O)c(C(=O)CC(=O)c2ccc(Cl)cc2)c1,"inconclusive [activator, partial curve, poor fit]",–
O=C(Oc1ccc2ccccc2c1Cl)N1CCCCCC1,"inconclusive [activator, full curve, poor fit]",–
Cc1ccc(N2C(=O)c3ccccc3C2=O)cc1C,"inconclusive [activator, partial curve, poor fit]",–
CC(C)OCCCNC(=O)CN1C(=O)c2cccc3cccc1c23,"inconclusive [activator, single point]",–
COc1ccc(/C=C/C(=O)c2ccccc2O)cc1,"inconclusive [activator, partial curve, poor fit]",–
NC(=O)COc1ccc2cc(-c3ccc(F)cc3)c(=O)oc2c1,"inconclusive [activator, partial curve, poor fit]",–
CN(C)N(C(=O)c1cc(-c2cccs2)nn1-c1ccccc1)C1CCS(=O)(=O)C1 (centres undefined),–,inactive: -6.33%
O=C(Nc1ccc(Cl)cn1)c1cc2ccccc2o1,"inconclusive [activator, full curve, poor fit]",–
CN(C)S(=O)(=O)c1cccc(NC(=O)c2ccccc2OCc2ccc(F)cc2)c1,–,inactive: 1.77%
COc1cccc2sc(NNC(=O)c3nc4ccccc4s3)nc12,"inconclusive [activator, single point]",–
CC(C)(C)c1cc(CN(CCO)CCO)cc(C(C)(C)C)c1O,"inconclusive [activator, single point]",–
Nc1nc(SCc2ccccc2Cl)ns1,"inconclusive [activator, single point]",–
CC1Sc2ccc(C(=O)Nc3ccc(S(=O)(=O)N(C)C)cc3)cc2NC1=O (centres undefined),–,inactive: -9.8%
Cc1ccc(-c2nc3ccsc3c(=O)[nH]2)cc1,–,inactive: 20.4%
O=C(Cc1ccc2cccnc2c1)c1ccc(O)cc1O,"inconclusive [activator, partial curve, poor fit]",–
O=C(COC(=O)c1ccccc1Sc1ccc(C(F)(F)F)cc1[N+](=O)[O-])NC(=O)NC1CCCC1,"inconclusive [activator, partial curve, poor fit]",–
Cc1ccc(S(=O)(=O)NNc2nc3ccccc3nc2C(F)(F)F)cc1,–,inactive: 0.287%
N/C(=N\OC(=O)CCC1CCCCC1)c1ccccn1,"inconclusive [activator, full curve, poor fit]",–
O/C(=C\c1nc2ccccc2[nH]1)c1cccs1,"inconclusive [activator, partial curve, poor fit]",–
COc1ccccc1N1CCN(/N=C/C=C\c2ccco2)CC1,"inconclusive [activator, full curve, poor fit]",–
Cn1cc(C(=O)N/N=C/c2ccc3c(c2)OCO3)c2ccccc21,–,inactive: 1.77%

Compound,Potency,"activity change, positive = activation"
Cc1nc2c3cnn(-c4ccccc4)c3ncn2n1,"inconclusive [activator, full curve, poor fit]",–
COc1ccc(-c2cc(C(=O)Nc3cc(C)nn3-c3ccccc3)no2)cc1,"inconclusive [activator, single point]",–
Cc1ccc2nc(/C(C#N)=C\c3ccc(N4CCOCC4)o3)[nH]c2c1,"inconclusive [activator, full curve, poor fit]",–
CC(C)[C@H](NC(=O)c1ccc([N+](=O)[O-])cc1Cl)C(=O)N1CCN(C/C=C/c2ccccc2)CC1,–,inactive: -0.18%
CC(=O)Nc1ccc(NC(=O)CSc2nnc(-c3ccco3)n2Cc2ccco2)cc1,"inconclusive [activator, single point]",–
Cc1cc(/C=C2/NC(=O)N(c3ccccc3)C2=O)c(C)n1-c1cccnc1,"inconclusive [activator, partial curve, poor fit]",–
Cc1ccc(NC(=O)COC(=O)c2ccc([N+](=O)[O-])o2)cc1S(=O)(=O)N1CCCCCC1,"inconclusive [activator, partial curve, poor fit]",–
COc1ccc(NC(=O)c2cccs2)cc1O,"inconclusive [activator, full curve, poor fit]",–
COc1ccc(C(=O)O/N=C(\N)c2ccc(Cl)cc2)cc1,"inconclusive [activator, partial curve, poor fit]",–
CN1CCN(c2ccc(NC(=S)NC(=O)/C=C/c3ccco3)cc2)CC1,"inconclusive [activator, partial curve, poor fit]",–
O=C(N/N=C/c1ccc(F)cc1)c1sccc1OCc1ccc(F)cc1,"inconclusive [activator, partial curve, poor fit]",–
O=C(NCC(=O)N1CCN(c2ncccn2)CC1)c1cccs1,"inconclusive [activator, partial curve, poor fit]",–
O=C(Nc1ccc(C(F)(F)F)cc1)c1ccccc1Br,"inconclusive [activator, partial curve, poor fit]",–
O=C(COC(=O)c1ccccn1)Nc1nc(-c2ccccc2)cs1,"inconclusive [activator, partial curve, poor fit]",–
COc1ccc(C(=O)N/C(=C\c2ccco2)C(=O)OCc2ccco2)cc1,"inconclusive [activator, single point]",–
C(=N\Nc1ccc2nncn2n1)/c1ccccn1,–,inactive: 21.4%
COc1ccc2nc(NC(=O)c3c(C)noc3C)sc2c1,"inconclusive [activator, partial curve, poor fit]",–
O=C(CCNS(=O)(=O)c1ccccc1C(F)(F)F)N1CCN(S(=O)(=O)c2cccc(F)c2)CC1,–,inactive: 13.3%
NNc1ncnc2c1cnn2-c1ccccc1,"inconclusive [activator, partial curve, poor fit]",–
CC(C)(C)OC(=O)N1CCCC1C(=O)N1CCCC1C(=O)N1CCCC1C(=O)O (centres undefined),"inconclusive [activator, single point]",–
Cc1cccc(C)c1OCC(O)Cn1c2ccccc2c2ccccc21 (centres undefined),–,inactive: -12.1%
COc1cc(Cl)ccc1OCc1cc(C(=O)N2C[C@@H]3CCC[C@H]2C3)no1,"inconclusive [activator, partial curve, poor fit]",–

Compound,Potency,"activity change, positive = activation"
Cc1ccc(N(C(=O)CCCC(=O)Nc2ccccn2)C(C(=O)NC2CCCC2)c2ccc(O)cc2)cc1C (centres undefined),"inconclusive [activator, partial curve, poor fit]",–
Nn1c(SCC(=O)Nc2ccc(N3CCOCC3)cc2)nnc1-c1ccccc1F,"inconclusive [activator, full curve, poor fit]",–
COc1cccc(C(=O)/C=C/Nc2ccc(S(=O)(=O)Nc3cnc4ccccc4n3)cc2)c1,"inconclusive [activator, full curve, poor fit]",–
CCOC(=O)c1c(C)[nH]c(C(=O)COC(=O)C2CC2)c1C,"inconclusive [activator, partial curve, poor fit]",–
Clc1ccc(-c2cnc(Oc3ccccc3)nc2)cc1,"inconclusive [activator, partial curve, poor fit]",–
COc1ccc(/C=N/Nc2ccc([N+](=O)[O-])cc2)cc1O,"inconclusive [activator, full curve, poor fit]",–
Cc1sc(=NC(=O)c2ccco2)n(C)c1-c1ccc(Cl)cc1,"inconclusive [activator, full curve, poor fit]",–
O=C(O)c1ccccc1NSc1ccccc1[N+](=O)[O-],"inconclusive [activator, single point]",–
C/C(=N\OC(=O)Nc1ccc(Cl)cc1)c1ccc(F)c(F)c1,–,inactive: 2.45%
O=S(=O)(c1ccc(-c2ccccc2)cc1)N1CCCCC1,"inconclusive [activator, single point]",–
CC1Oc2ccccc2C=C1/C=N/NC(=O)c1ccccc1 (centres undefined),"inconclusive [activator, partial curve, poor fit]",–
O=C(Nc1ccc(C#Cc2ccccc2)cc1)C1CC1,"inconclusive [activator, partial curve, poor fit]",–
COc1ccc(-n2nnc3c(SCC(=O)Nc4ccc5c(c4)OCCO5)ncnc32)cc1,"inconclusive [activator, single point]",–
Cc1cc(Cl)ccc1OCCCC(=O)NCCN1C(=O)S/C(=C\c2cccnc2)C1=O,"inconclusive [activator, partial curve, poor fit]",–
O=c1oc2ccccc2cc1-c1csc(NN=C2CCCC2)n1,"inconclusive [activator, partial curve, poor fit]",–
CCCC(=O)Nc1cccc(NC(=O)c2ccc3c(c2)OCCO3)c1,–,inactive: 14%
[NH-]c1ncnc2c1N=C[N+]2=CC=CCO,"inconclusive [activator, single point]",–
O=C(CCl)N1CCN(CC(=O)N2CCCC2)CC1,"inconclusive [activator, single point]",–
CCCCCOc1ccc(NS(C)(=O)=O)cc1,"inconclusive [activator, partial curve, poor fit]",–
O=C(COc1ccc(Cl)cc1Cl)N(c1ccccn1)C1CCCCC1,"inconclusive [activator, full curve, poor fit]",–
